We go through 1 molecule from PMC4943851.

By UniProt entry, the sequences of proteins in these tests, tags left out. Residues count along the entry.
UniProt P08138, residues 29-427: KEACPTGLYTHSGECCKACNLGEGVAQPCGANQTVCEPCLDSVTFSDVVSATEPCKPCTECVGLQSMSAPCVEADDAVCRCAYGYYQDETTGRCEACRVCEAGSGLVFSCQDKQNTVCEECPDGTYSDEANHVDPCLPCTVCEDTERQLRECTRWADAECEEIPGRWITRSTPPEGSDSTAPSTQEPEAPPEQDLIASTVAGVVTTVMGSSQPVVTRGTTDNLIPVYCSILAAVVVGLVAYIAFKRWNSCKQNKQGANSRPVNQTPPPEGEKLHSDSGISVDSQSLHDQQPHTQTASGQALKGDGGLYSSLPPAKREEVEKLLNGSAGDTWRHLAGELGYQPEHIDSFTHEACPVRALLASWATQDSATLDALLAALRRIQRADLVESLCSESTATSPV

Results are given in words; binding and its absence hold for the method and conditions named. Binding seen in cells or lysates may run through a third protein. Some results given as binding are weak or reduced against the parent protein; the word gives no strength. Where a sequence is shown, tags or fusion partners need not be part of it.

This assay addresses Myc-NGFR (nerve growth factor receptor) (UniProt P08138). In words: co-IP; H1299 cells transfected with the tagged plasmids; ~500 to 1000 ug of proteins incubated with the indicated antibody at 4°C for 4 hr or overnight, protein A or G beads, washed at least three times with lysis buffer; immunoblot. On the technique in general: Immunoblotting shows a protein as a band on a membrane.

B1: HA-MDMX (protein, UniProt O15151 1-490)
chain: MTSFSTSAQCSTSDSACRISPGQINQVRPKLPLLKILHAAGAQGEMFTVKEVMHYLGQYIMVKQLYDQQEQHMVYCGGDLLGELLGRQSFSVKDPSPLYDMLRKNLVTLATATTDAAQTLALAQDHSMDIPSQDQLKQSAEESSTSRKRTTEDDIPTLPTSEHKCIHSREDEDLIENLAQDETSRLDLGFEEWDVAGLPWWFLGNLRSNYTPRSNGSTDLQTNQDVGTAIVSDTTDDLWFLNESVSEQLGVGIKVEAADTEQTSEEVGKVSDKKVIEVGKNDDLEDSKSLSDDTDVEVTSEDEWQCTECKKFNSPSKRYCFRCWALRKDWYSDCSKLTHSLSTSDITAIPEKENEGNDVPDCRRTISAPVVRPKDAYIKKENSKLFDPCNSVEFLDLAHSSESQETISSMGEQLDNLSEQRTDTENMEDCQNLLKPCSLCEKRPRDGNIIHGRTGHLVTCFHCARRLKKAGASCPICKKEIQLVIKVFIA
Take B1: the binding entry is on record as “binds”.
